Test results reported in PubChem BioAssay AID686979 (National Center for Advancing Translational Sciences (NCATS), 2013).
Values joined by “and” are separate entries in the source; they are usually repeats but may differ in a detail not shown here. Equal values may be shown once. Hit rate of the full screen: of about 420,000 compounds, about 50,000 (12%) were called active. The shares of active, inactive and inconclusive entries below differ from those in the screen. Calls follow the shape of the dose curve; as a rule, active = well fitted inhibition curve with a large enough effect; inconclusive = small, poorly fitted or top-dose-only effect; inactive = flat fitted curve, though single readings scatter. Where the call is inconclusive, the potency comes from a doubtful curve fit.
% is scaled to controls: 0 for no effect and ±100 for the full control effect; potency is read from the fitted curve at half-maximal effect; tags tell the direction and shape of the fitted curve.

Assay: qHTS for Inhibitors of human tyrosyl-DNA phosphodiesterase 1 (TDP1): qHTS in cells in presence of CPT; also: nearly all actives have a fitted effect of over 55% in size
Details: chicken DT40 Tdp1-/-;hTDP1 cells + 20 nM CPT, ATP luminescence, 48 h; activity change, negative = growth inhibition: at 46.2 µM (top of the series) unless noted
How it was run: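 Chicken DT40 Tdp1-/- cells stably complemented with human TDP1 were seeded at 400 cells/well in medium containing 20 nM camptothecin, exposed to pin-transferred compounds, and grown at 37 °C for at least 48 hr. Viability was read as ATP luminescence.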
For `CCc1ccc(S(=O)(=O)N2c3ccc(C)cc3C3CN(C)CCC32)cc1` (stereo unspecified), the Potency was inconclusive: 29.1 µM [inhibitor, single point]. For `CC1(C(=O)Nc2cnc3ccccc3c2)CCN1Cc1ccc(-c2ccccc2)o1` (stereo unspecified), the Potency was inconclusive: 29.1 µM [inhibitor, single point]. In the case of `O=C(Cn1[nH]c(=O)c2ccccc2c1=O)NC1CCCCCC1`, the Potency is reported as inconclusive: 23.1 µM [inhibitor, single point]. With `CCCOc1cccc(C(=O)NC(=S)Nc2cccc(NC(=O)c3ccccc3Cl)c2)c1` the Potency was inconclusive: 29.1 µM [inhibitor, single point]. With `CCN(C(C)=O)c1cccc2ccccc12` the Potency was “inactive”. With `O=C(Nc1nc2ccccc2s1)c1cc(-c2ccccc2)nn1-c1ccccc1` the Potency was inconclusive: 18.4 µM [inhibitor, single point]. In the case of `COc1ccc(CC(=O)N(CC2CCCO2)c2nc3ccccc3s2)cc1` (stereo unspecified), the Potency is reported as inconclusive: 18.4 µM [inhibitor, single point]. With `O=C(CC1C(=O)NCCN1CCCc1ccccc1)NCCc1ccccc1Cl` (stereo unspecified) the Potency was inconclusive: 23.1 µM [inhibitor, single point]. In the case of `CCn1c(CC2C(=O)N(C)c3ccccc32)nc2ccccc2c1=O` (stereo unspecified), the Potency is reported as “inactive”. In the case of `O=C(c1ccc(Oc2ccc([N+](=O)[O-])cc2Cl)cc1)N1CCCC1`, the Potency is reported as inconclusive: 16.4 µM [inhibitor, single point]. With `Cc1ccccc1-c1nc2ccc(Cl)cc2c(=O)n1O` the Potency was “inactive”. With `COc1cc(CNC(=O)c2cc(-c3cc(OC)ccc3Cl)n[nH]2)cc(OC)c1` the Potency was inconclusive: 29.1 µM [inhibitor, single point]. With `COc1ccc(Cl)cc1NC(=O)CSc1nc(-c2ccccc2)c2ccccc2n1` the Potency was active: 7.31 µM. For `CC(c1ccon1)N(C)C(=O)CCc1nnc(Cc2ccc(-c3ccccc3)cc2)o1` (stereo unspecified), the Potency was inconclusive: 29.1 µM [inhibitor, single point]. With `O=C(NCc1ccco1)/C(=C\C=C\c1ccccc1)NC(=O)c1ccccc1Br` the Potency was “inactive”. In the case of `N#C/C(=C/C=C/c1ccccc1)C(=O)Nc1ccccc1`, the Potency is reported as “inactive”. With `O=C(N/N=C/c1ccccn1)c1cc(-c2ccc3ccccc3c2)n[nH]1` the Potency was inconclusive: 29.1 µM [inhibitor, single point]. For `Cc1nc2c(OCc3ccc(Cl)cc3)cccn2c1N(C)C(=O)CCC1CCCC1`, the Potency was active: 14.6 µM. With `N#Cc1cccc(NC(=O)N2CCCC3(CCN(C(=O)c4csnn4)CC3)C2)c1` the Potency was “inactive”. For `CCN(CC(=O)Nc1ccc2c(c1)OCCO2)C(=O)c1ccc(Cl)cc1Cl`, the Potency was inconclusive: 9.2 µM [inhibitor, partial curve]. With `Cc1nn(C(C)(C)C)c(OC(=O)c2cccc(F)c2)c1Sc1ccccc1` the activity change, negative = growth inhibition was inconclusive: -36% [inhibitor]. In the case of `CCn1ncc(C2=NOC(C(=O)Nc3cc(OC)c(Cl)cc3OC)C2)c1C` (stereo unspecified), the Potency is reported as inconclusive: 5.17 µM [inhibitor, full curve, poor fit]. For `COc1cccc(NC(=O)Cn2c(=O)n(CC3CCCO3)c(=O)c3ccccc32)c1` (stereo unspecified), the Potency was “inactive”. For `Cc1nn(CCc2n[nH]c(=S)n2-c2ccc(F)cc2)c(C)c1[N+](=O)[O-]`, the Potency was inconclusive: 0.206 µM [inhibitor, full curve, poor fit]. With `CC(C)CC1COC(=O)N1` (stereo unspecified) the activity change, negative = growth inhibition was inconclusive: -8.14% [inhibitor]. With `CC(O)C(=O)O` (stereo unspecified) the Potency was “inactive”. In the case of `CC(C)C[C@H](CO)Nc1nc(N(C)c2cccc(Cl)c2)c2ncn(C(C)C)c2n1`, the Potency is reported as active: 16.4 µM. For `CC(C)CC(C(=O)NCCc1ccccc1)N1Cc2ccccc2C1=O` (stereo unspecified), the activity change, negative = growth inhibition was inconclusive: -35.2% [inhibitor]. In the case of `CCc1ccc(NC(=O)CCCn2nc(C)c3c(C)n(-c4ccccc4)nc3c2=O)cc1`, the Potency is reported as inconclusive: 16.4 µM [inhibitor, single point]. With `O=c1[nH]c(CS(=O)(=O)c2ccccc2)nc2ccccc12` the Potency was inconclusive: 3.66 µM [inhibitor, single point]. For `COc1ccc2c(c1)c1nc3ccccc3nc1n2CCn1c(=O)oc2ccccc21`, the Potency was inconclusive: 4.11 µM [inhibitor, single point]. For `CCCSCCCNC(=O)c1ccc(C)c(NC(=O)C2=C(C)OCCS2)c1`, the Potency was inconclusive: 29.1 µM [inhibitor, single point]. With `COc1ccc(-c2[nH]ncc2CN(CC2CCC(=O)N2)C(C)C)cc1F` (stereo unspecified) the Potency was inconclusive: 32.6 µM [inhibitor, single point]. With `Cc1ccc(NC(=O)C(CC(C)C)NC(N)=O)cc1Cl` (stereo unspecified) the Potency was inconclusive: 29.1 µM [inhibitor, single point]. With `C=CCn1c(=N)n(CC(O)COc2ccccc2OC)c2ccccc21` (stereo unspecified) the Potency was inconclusive: 18.4 µM [inhibitor, single point]. For `CCOc1ccc(CNC(=O)C2CCN(Cc3cc4ccccc4n3Cc3ccccc3C)CC2)cc1`, the Potency was active: 13 µM. In the case of `Cc1nn(-c2ccccc2)c(Cl)c1/C=N/NC(=O)OC(C)(C)C`, the Potency is reported as inconclusive: 29.1 µM [inhibitor, single point]. In the case of `FC(F)(F)c1ccnc(NCc2ccc(Cl)cc2)n1`, the Potency is reported as “inactive”. In the case of `CCOCCCNc1ncnc2c1[nH]c1ccccc12`, the Potency is reported as active: 10.3 µM. In the case of `CCCc1c(C(=O)N/N=C/c2ccc(OCc3ccccc3)c(OC)c2)nnn1-c1nonc1N`, the Potency is reported as inconclusive: 23.1 µM [inhibitor, single point]. With `CCOc1ccc2nc(NCCNS(=O)(=O)c3ccccc3)c(C#N)cc2c1` the activity change, negative = growth inhibition was inconclusive: -30.5% [inhibitor]. In the case of `O=C(O)c1cccc(NS(=O)(=O)c2ccc(C3CCCCC3)cc2)c1`, the Potency is reported as “inactive”. In the case of `CCc1nc2c(OCc3cc(Cl)cc(Cl)c3)cccn2c1N(C)C(=O)c1ccc(OC)cc1`, the Potency is reported as active: 18.4 µM. With `CCCC[C@@H]1CN=C(N)N1CCc1cc(C(F)(F)F)cc(C(F)(F)F)c1` the Potency was active: 3.66 µM. For `CCCCCCCC(=O)OC[C@H](CO)OC(=O)CCCCCCC`, the activity change, negative = growth inhibition was inactive: -11.7% [at 4.12 µM]. With `CC1Sc2ccc(S(=O)(=O)CCC(=O)N3CCCCC3)cc2NC1=O` (stereo unspecified) the activity change, negative = growth inhibition was inconclusive: -34.8% [inhibitor]. For `CCC(=O)NCCNc1nc2cc(C)cc(C)c2cc1C#N`, the Potency was “inactive”. In the case of `COc1ccccc1NC(=O)CN1CCN(CC(=O)Nc2cc(NC(C)=O)ccc2OC)CC1`, the Potency is reported as inconclusive: 20.6 µM [inhibitor, single point]. With `Cc1cc(C)n(-c2ccc(C(=O)N3CCC(CO)(Cc4ccccc4)CC3)cc2)n1` the Potency was active: 16.4 µM. In the case of `Cc1ccc2nc3c(cc(S(=O)(=O)c4ccccc4)c(=N)n3Cc3ccco3)c(=O)n2c1`, the Potency is reported as “inactive”. With `O=C(CCc1nnc2n(Cc3ccc(Cl)cc3)c(=O)c3ccccc3n12)N1CCN(c2ccccn2)CC1` the Potency was active: 20.6 µM. For `Cc1cccc(NC(=O)c2c(C)nn(-c3ccccc3)c2Cl)c1`, the Potency was “inactive”. For `Cc1ccc2oc(=O)c3cc(C(=O)NCCCN4CC(C)CC(C)C4)sc3c2c1` (stereo unspecified), the Potency was inconclusive: 25.9 µM [inhibitor, single point]. With `O=C(CN1c2ccccc2Sc2ccccc21)N/N=C/c1ccc([N+](=O)[O-])cc1` the Potency was inconclusive: 25.9 µM [inhibitor, single point]. For `CN(C)S(=O)(=O)c1ccc(C(=O)Nc2ccc(CN3CCCC3)cc2)cc1`, the Potency was inconclusive: 14.6 µM [inhibitor, partial curve, poor fit]. In the case of `CC1=C(C(=O)N2CCCC(N3CCN(c4cccc(C(F)(F)F)c4)CC3)C2)OCCO1` (stereo unspecified), the Potency is reported as inconclusive: 29.1 µM [inhibitor, single point]. For `Cc1nc(-c2cnn(-c3ccccc3)c2)c2cc(C)oc2n1`, the Potency was inconclusive: 29.1 µM [inhibitor, single point]. With `Cc1c(CCC(=O)NCCCn2ccnc2)c(=O)oc2cc3occ(C(C)(C)C)c3cc12` the Potency was “inactive”. With `CCc1ccc(CN(Cc2ccco2)C(=O)COc2ccc(Cl)cc2C)cc1` the Potency was inconclusive: 29.1 µM [inhibitor, single point]. For `O=C(O)CSc1nnc(CSc2nc3ccccc3s2)n1-c1ccccc1`, the Potency was “inactive”. With `CCS(=O)(=O)NCCc1ccc(OC)c(OC)c1` the Potency was “inactive”. In the case of `Cc1ccc(S(=O)(=O)CCN2CCC(n3cccc3)CC2)cc1`, the Potency is reported as “inactive”. For `O=C(O)C1CCN(C(=O)CCN2C(=O)S/C(=C\c3ccccc3)C2=O)CC1`, the Potency was inconclusive: 18.4 µM [inhibitor, single point]. In the case of `O=C(Nc1ccnn1C1CCN(Cc2ccccc2OC(F)F)CC1)c1cccnc1`, the Potency is reported as inconclusive: 29.1 µM [inhibitor, single point]. With `COc1cc(N(C)C)c(OC)cc1/C=C1\C=Cc2ccccc21` the Potency was inconclusive: 17.8 µM [inhibitor, single point]. With `COc1cc(CNCCc2ccccc2)cc(Cl)c1OCc1ccccc1` the Potency was inconclusive: 18.4 µM [inhibitor, single point]. With `C[C@@H]1CCC(=O)N(C[C@@H](C)CSc2ccc(Br)cc2)CC1` the Potency was inconclusive: 25.1 µM [inhibitor, single point] and inconclusive: 18.4 µM [inhibitor, single point]. With `CCOc1ccc(C(O)(CCC(C)C)C(CN2CCOCC2)c2ccccc2)cc1` (stereo unspecified) the Potency was inconclusive: 16.4 µM [inhibitor, single point]. With `O=C(Nc1ccnn1C1CCN(Cc2ccccc2OCCO)CC1)c1cccc(F)c1` the Potency was “inactive”. For `COc1cccc(C2(CSc3nnc(-c4cc(OC)c(OC)c(OC)c4)o3)OCCO2)c1`, the Potency was inconclusive: 23.1 µM [inhibitor, single point]. With `COC(=O)c1ccc2c(=O)n(CCCCCC(=O)NC(C)C)c(=O)[nH]c2c1` the Potency was “inactive and inconclusive: 20.6 µM [inhibitor, single point]”.
